The values that follow come from PubChem BioAssay AID1986 (Sanford-Burnham Center for Chemical Genomics, 2009).

Molecules are shown by their SMILES. The list shows a part of the results. These are further read-outs of the screen, such as a control signal, another cell line or another target. No call is given for them.

This experiment in a line: inhibitors of HIV fusion peptide binding, primary screen, biochemical, uHTS, fluorescence dequenching (AID 1986). As to conditions: cell-free peptide binding, 30 min, measured here: repeat confirmation average inhibition, at 18.6 µM, stronger effect = higher value.
The inhibition is the drop in the measured response relative to a control, in per cent. Consider `O=C(Nc1ccc(Br)cc1C(=O)O)c1ccc2c(c1)C(=O)N(Cc1ccccc1)C2=O`, for which the inhibition worked out at 76.2%. For `O=C(O)CCn1cc(/C=C/C(=O)c2ccc(Cl)cc2)c(-c2ccc(Br)cc2)n1`, the inhibition worked out at 53.2%. For the compound `COc1ccc(-c2cc(-c3ccc(Cl)cc3)c(C#N)c(SCC(=O)O)n2)cc1`, the inhibition worked out at 73.1%.

`Cc1ccccc1N=C1NC(=O)/C(=C/c2cccn2-c2cccc(C(=O)O)c2)S1`: the inhibition came out at 63.5%. In the case of `CCc1ccc(/C=C2/SC(=S)N(CCCC(=O)Nc3ccccc3C(=O)O)C2=O)cc1`, the inhibition was found to be 59.4%.

For `O=C(OCC1OC(n2ncc(=O)[nH]c2=O)C(OC(=O)c2ccccc2)C1OC(=O)c1ccccc1)c1ccccc1` (configuration not stated), the inhibition came out at 54.3%.

As for `CCOC(=O)c1c(N2C(=O)Nc3cc(Cl)c(Cl)cc3N2O)sc2c1CCCCC2`, the inhibition is 56.6%. In the case of `CCOc1cc(/C=N/Nc2cccc(C(=O)O)c2)ccc1OC(=O)c1ccccc1`, the inhibition came to 54.7%. As to `O=C(Nc1cc(S(=O)(=O)N2CCCCC2)ccc1Cl)c1ccccc1NS(=O)(=O)c1ccc(F)cc1`, the inhibition came to 66.5%. Then `CCOC(=O)C1=C(C)N=c2s/c(=C\c3ccc(OCC(=O)O)cc3)c(=O)n2C1c1ccc(OC(C)C)cc1` (configuration not stated), with 59.8%. Consider `O=C(O)c1[nH]c2ccccc2c1C(c1cccc(O)c1)c1c(C(=O)O)[nH]c2ccccc12`, for which the inhibition was found to be 57.4%. In the case of `O=C(CCCN1C(=O)/C(=C/c2cccs2)SC1=S)Nc1ccc(O)c(C(=O)O)c1`, the inhibition worked out at 51.7%. `O=C(CCN1C(=O)/C(=C/c2ccccc2Cl)SC1=S)Nc1ccccc1C(=O)O`: the inhibition is 51.4%. Consider `O=S(=O)(Nc1nc2ccccc2nc1Nc1cccc(S(=O)(=O)N2CCCCC2)c1)c1ccccc1`, for which the inhibition was found to be 94%.

As for `COc1cc(/C=C(\C#N)c2nc3ccc(C)cc3[nH]2)cc([N+](=O)[O-])c1O`, the inhibition was determined as 61.6%.

`COc1ccc(-c2nn(-c3ccccc3)cc2/C=C2/SC(=S)N(CCCC(=O)O)C2=O)c(C)c1`: the inhibition came out at 54.9%. With `O=C(O)c1ccccc1NS(=O)(=O)c1ccc(NNC(=S)Nc2ccc(OC(F)F)cc2)c([N+](=O)[O-])c1`, the inhibition was 83.8%. The same measure for `NS(=O)(=O)c1cc(C(=O)NC2CCSc3ccccc32)ccc1Cl` (configuration not stated): 79.4%; for `N#Cc1c(-c2ccccc2)nc(SCc2cccc(C(F)(F)F)c2)[nH]c1=O`: 76.1%. As for `Brc1ccc(N/N=C(/N=Nc2nn[nH]n2)c2ccccc2)cc1`, the inhibition was 68.3%. As to `O=C(O)c1ccc(NS(=O)(=O)c2ccc3c(c2)C2C=CCC2C(c2ccccc2F)N3)cc1` (configuration not stated), the inhibition was 50.9%. For `CCOc1cc(/C=C2\C(=N)N3N=C(S(C)(=O)=O)SC3=NC2=O)ccc1OCCOc1cccc(OC)c1`, the inhibition was 75.7%. Consider `O=C(O)c1cccc2c(-c3ccccc3)c(-c3ccccc3)[nH]c12`, for which the inhibition was 60.5%. Take `CCc1nnc(NS(=O)(=O)c2ccc(NC(=S)NC(=O)/C=C/c3ccc(C(C)C)cc3)cc2)s1`: the inhibition was determined as 81.7%. Then `O=C(O)CN1C(=O)/C(=C\c2cc(Br)ccc2OCc2ccc(Cl)cc2Cl)SC1=S`, with 78.3%; and `COc1cc(C(=O)Nc2scc(-c3ccc(Br)cc3)c2C(=O)O)cc(OC)c1OC`, with 51.7%. Turning to `CCCCCOc1ccc(C2C(C(=O)c3ccc(C)o3)=C(O)C(=O)N2c2cc(C)on2)cc1` (configuration not stated), the inhibition stood at 62.6%. The same measure for `CCc1nnc(NS(=O)(=O)c2ccc(NC(=S)NC(=O)/C=C/c3cccs3)cc2)s1`: 64.7%; for `COc1ccccc1OCCOc1ccc(/C=C2\C(=N)N3N=C(S(C)(=O)=O)SC3=NC2=O)cc1`: 77.1%; for `Oc1c(Br)cc(Br)c(/C=N/n2c(-c3ccccc3)n[nH]c2=S)c1Br`: 82.2%. As to `O=C(COc1ccc2ccccc2c1)Nc1cccc(C(=O)Nc2ccccc2C(=O)O)c1`, the inhibition came to 61.6%. Then `CC(C)(C)OC(=O)N1CCC(c2cc(=O)n3[nH]cc(C(=O)Nc4ccc(F)c(Cl)c4)c3n2)CC1`, with 81.8%; and `O=C1NN(c2ccccc2)C(=O)/C1=C\c1cccc(OC(=O)c2cccs2)c1`, with 55.2%; and `O=C(COc1ccc(Cl)cc1Cl)Nc1ccc(C(=O)Nc2ccccc2C(=O)O)cc1`, with 64.4%. With `O=C(O)CSc1cc(C(=O)c2cc(F)ccc2O)cn2c(=O)c3c(-c4ccccc4)csc3nc12`, the inhibition turned out to be 75.6%. As for `O=[N+]([O-])c1cc(Cl)cc(/C=N/NC(=S)Nc2ccc(S(=O)(=O)N3CCOCC3)cc2)c1O`, the inhibition came out at 59.6%. As for `Cc1c2c(=O)n(-c3nc4ccccc4s3)nc-2cc(O)n1Cc1ccccc1`, the inhibition worked out at 56.1%. Then `COc1cc(/C=C2\C(=N)N3N=C(S(C)(=O)=O)SC3=NC2=O)ccc1OC(=O)c1ccco1`, with 51.2%. Consider `COc1ccc2c(c1)cc(C(=O)N/N=C/c1c(O)c(C(=O)O)cc3ccccc13)n2C`, for which the inhibition is 95.1%. Take `O=C1N=c2ccc(Br)cc2=C1c1sc(=S)n(NS(=O)(=O)c2ccccc2)c1O`: the inhibition was 50.3%.

In the case of `CCS(=O)(=O)C1=NSC2=NC(=O)/C(=C\c3cc(C)n(-c4cccc(OC)c4)c3C)C(=N)N21`, the inhibition was 72.4%. The same measure for `COc1ccccc1NS(=O)(=O)c1cccc(-n2c(O)c(C=Nc3ccccc3C(=O)O)c3ccccc3c2=O)c1`: 65.5%. With `O=C(O)CN1C(=O)/C(=C\c2cc(Br)ccc2OCc2ccc([N+](=O)[O-])cc2)SC1=S`, the inhibition was 66.6%. In the case of `CCOc1cc(/C=N/N=C2/NC(=O)C(CC(=O)O)S2)ccc1OCc1ccc(Cl)cc1` (configuration not stated), the inhibition amounted to 58.7%.

For the compound `O=C(COc1cccc2ccccc12)Nc1ccc(Cl)cc1C(=O)O`, the inhibition worked out at 55%. For `O=C(NC(=S)Nc1ccccc1C(=O)O)c1ccc(-c2ccc(Br)cc2)o1`, the inhibition was found to be 56.1%. Take `O=C(NN1C(=O)/C(=C/c2ccc(O)c([N+](=O)[O-])c2)SC1=S)c1ccccc1Cl`: the inhibition was determined as 65%.

On to `Oc1c(Cl)cc(Cl)cc1Sc1cc(Cl)cc(Cl)c1O`, for which the inhibition worked out at 90%. For `O=c1[nH]c(=S)[nH]c2c1C(c1ccc(Br)cc1)c1c([nH]c(=S)[nH]c1=O)O2`, the inhibition came out at 74.8%. Regarding `CC(C)NC(=O)c1sc(=S)n2c1[nH]c(=O)c1ccc(C(=O)NCCc3ccc(Cl)cc3)cc12`, the inhibition was 86.3%. As for `O=C(O)/C(CC(=O)c1ccc(Cl)cc1)=N/Nc1ccc([N+](=O)[O-])cc1[N+](=O)[O-]`, the inhibition was 52.2%. Regarding `COc1ccc(/C=C2/SC(=O)N(CCCCCC(=O)Nc3ccccc3C(=O)O)C2=S)cc1`, the inhibition was 72.1%. Turning to `COc1ccc(C(=O)Oc2ccc(/C=N/Nc3ccc(Cl)c(C(=O)O)c3)cc2OC)cc1`, the inhibition is 72.3%.

For `CC(C)COc1ccc(-c2nn(-c3ccccc3)cc2/C=C2/SC(=S)N(CC(=O)O)C2=O)cc1`, the inhibition was 89.8%.

For `O=C(NCc1ccccc1)c1ccc2c(=O)[nH]c3c(C(=O)NCC4CCCO4)sc(=S)n3c2c1` (configuration not stated), the inhibition was 54.5%.

Take `Cc1cccc(OCC(=O)Nc2ccc(C(=O)Nc3ccccc3C(=O)O)cc2)c1C`: the inhibition is 50.4%. Take `Cc1cccc(C)c1-n1cccc1/C=C1\SC(=S)N(c2cccc(C(=O)O)c2)C1=O`: the inhibition came out at 63.2%.

With `Cc1sc(-n2c(C)cc(/C=C3\SC(=S)NC3=O)c2C)c(C#N)c1C`, the inhibition is 64.6%. For `O=C(O)c1ccc(Nc2nc(-c3cc4ccccc4oc3=O)cs2)cc1O`, the inhibition came out at 80.9%. With `Cc1ccccc1C(=O)Nc1cccc(C(=O)N/N=C/c2cc(Cl)cc([N+](=O)[O-])c2O)c1`, the inhibition was 50.3%.

As for `Cc1c(Cl)cccc1NS(=O)(=O)c1ccc2c(c1)C1C=CCC1C(c1ccc(C(=O)O)cc1)N2` (configuration not stated), the inhibition turned out to be 80%. Then `O=C(O)c1ccc(N/N=C/c2ccc(-c3cccc(Cl)c3)o2)cc1`, with 56.2%; and `COc1cccc(-c2nc(SCC(=O)Nc3nc(-c4ccccc4)c(C)s3)[nH]c(=O)c2C#N)c1`, with 80.7%; and `O=C1NN(c2ccc(Cl)c(Cl)c2)C(=O)/C1=C/c1cccc(OC(=O)c2cccs2)c1`, with 84.4%.

Consider `O=C(O)c1ccc(N2C(=O)/C(=C/c3ccc(-c4ccc([N+](=O)[O-])cc4)o3)C=C2c2ccccc2)cc1`, for which the inhibition is 76.5%. For `CC(/C=C1\SC(=S)N(CCCC(=O)Nc2ccc(C(=O)O)cc2)C1=O)=C\c1ccccc1`, the inhibition came out at 61.7%. Regarding `COc1ccc(NC(=O)c2c[nH]n3c(=O)cc(C4CCN(C(=O)OC(C)(C)C)CC4)nc23)cc1Cl`, the inhibition was 76.4%.

As to `CCC(C)(C)C1CCc2c(sc(NC(=O)c3ccccc3C(=O)O)c2C#N)C1` (configuration not stated), the inhibition is 63.9%. On to `O=C(O)C1Nc2c(O)cccc2C2C=CCC12` (configuration not stated), for which the inhibition was found to be 77.2%.

Consider `CCCOc1cccc(C2C(C(=O)c3cc4ccccc4o3)=C(O)C(=O)N2c2cc(C)on2)c1` (configuration not stated), for which the inhibition stood at 53%. For `C=CC#CC[N+]1(CC#Cc2ccccc2)CCOCC1`, the inhibition stood at 82.5%. On to `CC1(C)CC(=O)C2=C(C1)c1c(ccc3ccccc13)NC2c1cc([N+](=O)[O-])cc([N+](=O)[O-])c1O` (configuration not stated), for which the inhibition turned out to be 73.2%. Regarding `O=C(O)CCN1C(=O)/C(=C\c2cccc(Oc3ccccc3)c2)SC1=S`, the inhibition was found to be 62.8%. For `COc1cc(/C=C2/C(=O)NN(c3ccc(Cl)cc3)C2=O)ccc1OC(=O)c1ccco1`, the inhibition was found to be 50.4%.

With `O=C(O)c1[nH]c2ccccc2c1C(c1cc(Cl)cc([N+](=O)[O-])c1O)c1c(C(=O)O)[nH]c2ccccc12`, the inhibition is 74.4%.

Regarding `CCOc1cc(Br)cc(C(c2c(C(=O)O)[nH]c3ccccc23)c2c(C(=O)O)[nH]c3ccccc23)c1O`, the inhibition is 87.8%. Turning to `O=C(CCN1C(=O)/C(=C/c2ccco2)SC1=S)Nc1ccc(C(=O)O)c(O)c1`, the inhibition stood at 51.2%. As for `O=C(O)c1ccccc1NC(=O)c1ccccc1Nc1ccccc1`, the inhibition amounted to 53.9%. As to `CCOc1cc(/C=N/NC(=O)c2ccc(-c3csc(Nc4ccc(C)cc4)n3)cc2)ccc1OCC(=O)O`, the inhibition was determined as 87%. As for `CS(=O)(=O)C1=NSC2=NC(=O)/C(=C\c3ccc(OS(=O)(=O)c4ccccc4)cc3)C(=N)N21`, the inhibition was 71.1%. The same measure for `CCCCCC#CCC#CCC#CCC#CCCCC(=O)O`: 71.5%; for `COc1ccc(C(=O)/C=C/c2ccc(OCc3ccccc3)cc2)cc1CSCC(=O)O`: 69.2%; for `O=C(O)COc1ccc(Br)cc1C(c1c(C(=O)O)[nH]c2ccccc12)c1c(C(=O)O)[nH]c2ccccc12`: 81%. Then `O=C(O)c1ccc(-c2ccc(/C=c3/sc4nc5ccccc5n4c3=O)o2)cc1Cl`, with 100%; and `CCCCn1c(O)c(/C=C2\C=Nc3ccccc32)c(=O)[nH]c1=O`, with 118%.

Take `Cc1cn2c(N)c(C=C3C=C(Cl)C(=O)C(Cl)=C3)c(=O)nc2s1`: the inhibition worked out at 66.6%. Turning to `CCOc1ccc(NC(=NCc2ccc3c(c2)OCO3)SC2CC(=O)N(c3ccc(C(=O)O)cc3)C2=O)cc1` (configuration not stated), the inhibition was determined as 55.7%.
